# Experimental data published in the supplement of paper PMC8728848.
# The list shows a part of the results.
# B1: CTLY 1 (Homo sapiens), Q6ZS10 (protein)
# chain: AITCPEGWLPFEGKCYYFSPSTKSWDEARMFCQENYSHLVIINSFAEHNFVAKAHGSPRVYWLGLNDRAQEGDWRWLDGSPVTLSFWEPEEPNNIHDEDCATMNKGGTWNDLSCYKTTYWICERKGLNDIFEAQKIEWHE
# Assays:
# Experiment in all cases: glycan array binding signal (z-score within array); higher = stronger binding
# Conditions in all cases: glycan notation: IUPAC condensed, linker removed
# [1] = target: Fuc(a1-3)[Gal3S(b1-4)]GlcNAc
# How it was run: (§1)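 The binding signal is a Z-score computed within each array and averaged over linkers. Arrays of the same protein sequence at different concentrations or buffers were also averaged together. Data originate from 3228 arrays in the Consortium for Functional Glycomics database, kept only where the protein sequence was available.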
# [2] = target: Fuc(a1-3)[Gal3S(b1-4)]GlcNAc6S
# How it was run: as §1
# [3] = target: Fuc(a1-3)[GalNAc(b1-4)]GlcNAc
# How it was run: as §1
# Fuc(a1-4)GlcNAc = target: Fuc(a1-4)GlcNAc
# How it was run: as §1
# Fuc(b1-3)GlcNAc = target: Fuc(b1-3)GlcNAc
# How it was run: as §1
# Gal(a1-2)Gal = target: Gal(a1-2)Gal
# How it was run: as §1
# Gal(a1-3)Gal = target: Gal(a1-3)Gal
# How it was run: as §1
# Gal(a1-3)Gal(b1-3)GlcNAc = target: Gal(a1-3)Gal(b1-3)GlcNAc
# How it was run: as §1
# [4] = target: Gal(a1-3)Gal(b1-3)GlcNAc(b1-2)Man(a1-3)[Gal(a1-3)Gal(b1-3)GlcNAc(b1-2)Man(a1-6)]Man(b1-4)GlcNAc(b1-4)GlcNAc
# How it was run: as §1
# [5] = target: Gal(a1-3)Gal(b1-3)[Fuc(a1-4)]GlcNAc(b1-2)Man(a1-3)[Gal(a1-3)Gal(b1-3)[Fuc(a1-4)]GlcNAc(b1-2)Man(a1-6)]Man(b1-4)GlcNAc(b1-4)GlcNAc
# How it was run: as §1
# Gal(a1-3)Gal(b1-4)Glc = target: Gal(a1-3)Gal(b1-4)Glc
# How it was run: as §1
# Gal(a1-3)Gal(b1-4)GlcNAc = target: Gal(a1-3)Gal(b1-4)GlcNAc
# How it was run: as §1
# [6] = target: Gal(a1-3)Gal(b1-4)GlcNAc(b1-3)GalNAc
# How it was run: as §1
# [7] = target: Gal(a1-3)Gal(b1-4)[Fuc(a1-3)]GlcNAc
# How it was run: as §1
# [8] = target: Gal(a1-3)Gal(b1-4)[Fuc(a1-3)]GlcNAc(b1-2)Man(a1-3)[Gal(a1-3)Gal(b1-4)[Fuc(a1-3)]GlcNAc(b1-2)Man(a1-6)]Man(b1-4)GlcNAc(b1-4)GlcNAc
# How it was run: as §1
# Gal(a1-3)GalNAc = target: Gal(a1-3)GalNAc
# How it was run: as §1
# [9] = target: Gal(a1-3)[Gal(a1-4)]Gal(b1-4)GlcNAc
# How it was run: as §1
# [10] = target: Gal(a1-4)Gal(b1-3)GlcNAc(b1-2)Man(a1-3)[Gal(a1-4)Gal(b1-3)GlcNAc(b1-2)Man(a1-6)]Man(b1-4)GlcNAc(b1-4)GlcNAc
# How it was run: as §1
# Gal(a1-4)Gal(b1-4)Glc = target: Gal(a1-4)Gal(b1-4)Glc
# How it was run: as §1
# Gal(a1-4)Gal(b1-4)GlcNAc = target: Gal(a1-4)Gal(b1-4)GlcNAc
# How it was run: as §1
# [11] = target: Gal(a1-4)Gal(b1-4)GlcNAc(b1-2)Man(a1-3)[Gal(a1-4)Gal(b1-4)GlcNAc(b1-2)Man(a1-6)]Man(b1-4)GlcNAc(b1-4)GlcNAc
# How it was run: as §1
# [12] = target: Gal(a1-4)Gal(b1-4)GlcNAc(b1-3)Gal(b1-4)Glc
# How it was run: as §1
# Gal(a1-4)GlcNAc = target: Gal(a1-4)GlcNAc
# How it was run: as §1
# Gal(a1-6)Glc = target: Gal(a1-6)Glc
# How it was run: as §1
# Gal(b1-2)Gal = target: Gal(b1-2)Gal
# How it was run: as §1
# Gal(b1-3)Gal = target: Gal(b1-3)Gal
# How it was run: as §1
# Gal(b1-3)Gal(b1-4)GlcNAc = target: Gal(b1-3)Gal(b1-4)GlcNAc
# How it was run: as §1
# [13] = target: Gal(b1-3)Gal(b1-4)GlcNAc(b1-2)Man(a1-3)[Gal(b1-3)Gal(b1-4)GlcNAc(b1-2)Man(a1-6)]Man(b1-4)GlcNAc(b1-4)GlcNAc
# How it was run: as §1
# Gal(b1-3)GalNAc = target: Gal(b1-3)GalNAc
# How it was run: as §1
# [14] = target: Gal(b1-3)GalNAc(a1-3)[Fuc(a1-2)]Gal(b1-4)Glc
# How it was run: as §1
# [15] = target: Gal(b1-3)GalNAc(a1-3)[Fuc(a1-2)]Gal(b1-4)GlcNAc
# How it was run: as §1
# [16] = target: Gal(b1-3)GalNAc(b1-3)Gal(a1-4)Gal(b1-4)Glc
# How it was run: as §1
# [17] = target: Gal(b1-3)GalNAc(b1-4)Gal(b1-4)Glc
# How it was run: as §1
# [18] = target: Gal(b1-3)GalNAc(b1-4)[Neu5Ac(a2-3)]Gal(b1-4)Glc
# How it was run: as §1
# Gal(b1-3)GlcNAc = target: Gal(b1-3)GlcNAc
# How it was run: as §1
# [19] = target: Gal(b1-3)GlcNAc(a1-6)Gal(b1-4)GlcNAc
# How it was run: as §1
# [20] = target: Gal(b1-3)GlcNAc(b1-2)Man(a1-3)[Gal(b1-3)GlcNAc(b1-2)Man(a1-6)]Man(b1-4)GlcNAc(b1-4)GlcNAc
# How it was run: as §1
# [21] = target: Gal(b1-3)GlcNAc(b1-2)Man(a1-3)[Gal(b1-3)GlcNAc(b1-2)Man(a1-6)]Man(b1-4)GlcNAc(b1-4)[Fuc(a1-6)]GlcNAc
# How it was run: as §1
# [22] = target: Gal(b1-3)GlcNAc(b1-3)Gal(b1-3)GlcNAc
# How it was run: as §1
# [23] = target: Gal(b1-3)GlcNAc(b1-3)Gal(b1-4)Glc
# How it was run: as §1
# [24] = target: Gal(b1-3)GlcNAc(b1-3)Gal(b1-4)GlcNAc
# How it was run: as §1
# [25] = target: Gal(b1-3)GlcNAc(b1-3)Gal(b1-4)GlcNAc(b1-6)[Gal(b1-3)GlcNAc(b1-3)]Gal(b1-4)Glc
# How it was run: as §1
# [26] = target: Gal(b1-3)GlcNAc(b1-3)Gal(b1-4)[Fuc(a1-3)]GlcNAc(b1-6)[Gal(b1-3)GlcNAc(b1-3)]Gal(b1-4)Glc
# How it was run: as §1
# [27] = target: Gal(b1-3)GlcNAc(b1-3)GalNAc
# How it was run: as §1
# [28] = target: Gal(b1-3)GlcNAc(b1-6)Gal(b1-4)GlcNAc
# How it was run: as §1
# [29] = target: Gal(b1-3)[Fuc(a1-4)]GlcNAc
# How it was run: as §1
# [30] = target: Gal(b1-3)[Fuc(a1-4)]GlcNAc(b1-2)Man(a1-3)[Gal(b1-3)[Fuc(a1-4)]GlcNAc(b1-2)Man(a1-6)]Man(b1-4)GlcNAc(b1-4)GlcNAc
# How it was run: as §1
# [31] = target: Gal(b1-3)[Fuc(a1-4)]GlcNAc(b1-2)Man(a1-3)[Gal(b1-3)[Fuc(a1-4)]GlcNAc(b1-2)Man(a1-6)]Man(b1-4)GlcNAc(b1-4)[Fuc(a1-6)]GlcNAc
# How it was run: as §1
# [32] = target: Gal(b1-3)[Fuc(a1-4)]GlcNAc(b1-3)Gal(b1-3)[Fuc(a1-4)]GlcNAc
# How it was run: as §1
# [33] = target: Gal(b1-3)[Fuc(a1-4)]GlcNAc(b1-3)Gal(b1-4)GlcNAc
# How it was run: as §1
# [34] = target: Gal(b1-3)[Fuc(a1-4)]GlcNAc(b1-3)Gal(b1-4)[Fuc(a1-3)]GlcNAc
# How it was run: as §1
# [35] = target: Gal(b1-3)[GlcNAc(b1-6)]GalNAc
# How it was run: as §1
# [36] = target: Gal(b1-3)[Neu5Ac(a2-6)]GalNAc
# How it was run: as §1
# [37] = target: Gal(b1-3)[Neu5Ac(a2-6)]GlcNAc(b1-6)Gal(b1-4)Glc
# How it was run: as §1
# [38] = target: Gal(b1-3)[Neu5Ac(b2-6)]GalNAc
# How it was run: as §1
# [39] = target: Gal(b1-4)GalNAc(a1-3)[Fuc(a1-2)]Gal(b1-4)GlcNAc
# How it was run: as §1
# [40] = target: Gal(b1-4)GalNAc(b1-3)[Fuc(a1-2)]Gal(b1-4)GlcNAc
# How it was run: as §1
# Gal(b1-4)Glc = target: Gal(b1-4)Glc
# How it was run: as §1
# Gal(b1-4)Glc6S = target: Gal(b1-4)Glc6S
# How it was run: as §1
# Gal(b1-4)GlcNAc = target: Gal(b1-4)GlcNAc
# How it was run: as §1
binder,measurement,setting,value
B1,glycan array binding signal (z-score),[1],0.198
same,glycan array binding signal (z-score),[2],0.914
same,glycan array binding signal (z-score),[3],-0.188
same,glycan array binding signal (z-score),Fuc(a1-4)GlcNAc,-0.24
same,glycan array binding signal (z-score),Fuc(b1-3)GlcNAc,-0.213
same,glycan array binding signal (z-score),Gal(a1-2)Gal,-0.245
same,glycan array binding signal (z-score),Gal(a1-3)Gal,-0.247
same,glycan array binding signal (z-score),Gal(a1-3)Gal(b1-3)GlcNAc,-0.241
same,glycan array binding signal (z-score),[4],-0.23
same,glycan array binding signal (z-score),[5],-0.04
same,glycan array binding signal (z-score),Gal(a1-3)Gal(b1-4)Glc,-0.245
same,glycan array binding signal (z-score),Gal(a1-3)Gal(b1-4)GlcNAc,-0.233
same,glycan array binding signal (z-score),[6],-0.25
same,glycan array binding signal (z-score),[7],0.004
same,glycan array binding signal (z-score),[8],-0.118
same,glycan array binding signal (z-score),Gal(a1-3)GalNAc,-0.24
same,glycan array binding signal (z-score),[9],-0.253
same,glycan array binding signal (z-score),[10],-0.122
same,glycan array binding signal (z-score),Gal(a1-4)Gal(b1-4)Glc,-0.252
same,glycan array binding signal (z-score),Gal(a1-4)Gal(b1-4)GlcNAc,-0.233
same,glycan array binding signal (z-score),[11],-0.231
same,glycan array binding signal (z-score),[12],-0.255
same,glycan array binding signal (z-score),Gal(a1-4)GlcNAc,-0.246
same,glycan array binding signal (z-score),Gal(a1-6)Glc,-0.242
same,glycan array binding signal (z-score),Gal(b1-2)Gal,-0.229
same,glycan array binding signal (z-score),Gal(b1-3)Gal,-0.248
same,glycan array binding signal (z-score),Gal(b1-3)Gal(b1-4)GlcNAc,-0.245
same,glycan array binding signal (z-score),[13],-0.232
same,glycan array binding signal (z-score),Gal(b1-3)GalNAc,-0.238
same,glycan array binding signal (z-score),[14],-0.242
same,glycan array binding signal (z-score),[15],-0.237
same,glycan array binding signal (z-score),[16],-0.229
same,glycan array binding signal (z-score),[17],-0.241
same,glycan array binding signal (z-score),[18],-0.249
same,glycan array binding signal (z-score),Gal(b1-3)GlcNAc,-0.246
same,glycan array binding signal (z-score),[19],-0.236
same,glycan array binding signal (z-score),[20],-0.056
same,glycan array binding signal (z-score),[21],-0.139
same,glycan array binding signal (z-score),[22],-0.251
same,glycan array binding signal (z-score),[23],-0.245
same,glycan array binding signal (z-score),[24],-0.224
same,glycan array binding signal (z-score),[25],-0.224
same,glycan array binding signal (z-score),[26],-0.233
same,glycan array binding signal (z-score),[27],-0.233
same,glycan array binding signal (z-score),[28],-0.234
same,glycan array binding signal (z-score),[29],0.451
same,glycan array binding signal (z-score),[30],-0.179
same,glycan array binding signal (z-score),[31],0.746
same,glycan array binding signal (z-score),[32],0.622
same,glycan array binding signal (z-score),[33],-0.216
same,glycan array binding signal (z-score),[34],1.2
same,glycan array binding signal (z-score),[35],-0.228
same,glycan array binding signal (z-score),[36],-0.228
same,glycan array binding signal (z-score),[37],-0.24
same,glycan array binding signal (z-score),[38],-0.248
same,glycan array binding signal (z-score),[39],-0.224
same,glycan array binding signal (z-score),[40],-0.216
same,glycan array binding signal (z-score),Gal(b1-4)Glc,-0.243
same,glycan array binding signal (z-score),Gal(b1-4)Glc6S,-0.248
same,glycan array binding signal (z-score),Gal(b1-4)GlcNAc,-0.245
